From publication PMC4336329 (PLoS ONE, 2015)
In all, about 310,000 compounds went through this assay and about 2,200 (0.71%) showed an effect of 50% or more. The effect is printed as a negative number. The list shows a part of the results.

What follows are compounds tested against human ether-à-go-go-related gene (hERG) potassium channel (human, UniProt Q12809) (assay: primary screen, population patch clamp on CHO cells stably expressing hERG).
Chain of human ether-à-go-go-related gene (hERG) potassium channel (Q12809 whole entry, looked up): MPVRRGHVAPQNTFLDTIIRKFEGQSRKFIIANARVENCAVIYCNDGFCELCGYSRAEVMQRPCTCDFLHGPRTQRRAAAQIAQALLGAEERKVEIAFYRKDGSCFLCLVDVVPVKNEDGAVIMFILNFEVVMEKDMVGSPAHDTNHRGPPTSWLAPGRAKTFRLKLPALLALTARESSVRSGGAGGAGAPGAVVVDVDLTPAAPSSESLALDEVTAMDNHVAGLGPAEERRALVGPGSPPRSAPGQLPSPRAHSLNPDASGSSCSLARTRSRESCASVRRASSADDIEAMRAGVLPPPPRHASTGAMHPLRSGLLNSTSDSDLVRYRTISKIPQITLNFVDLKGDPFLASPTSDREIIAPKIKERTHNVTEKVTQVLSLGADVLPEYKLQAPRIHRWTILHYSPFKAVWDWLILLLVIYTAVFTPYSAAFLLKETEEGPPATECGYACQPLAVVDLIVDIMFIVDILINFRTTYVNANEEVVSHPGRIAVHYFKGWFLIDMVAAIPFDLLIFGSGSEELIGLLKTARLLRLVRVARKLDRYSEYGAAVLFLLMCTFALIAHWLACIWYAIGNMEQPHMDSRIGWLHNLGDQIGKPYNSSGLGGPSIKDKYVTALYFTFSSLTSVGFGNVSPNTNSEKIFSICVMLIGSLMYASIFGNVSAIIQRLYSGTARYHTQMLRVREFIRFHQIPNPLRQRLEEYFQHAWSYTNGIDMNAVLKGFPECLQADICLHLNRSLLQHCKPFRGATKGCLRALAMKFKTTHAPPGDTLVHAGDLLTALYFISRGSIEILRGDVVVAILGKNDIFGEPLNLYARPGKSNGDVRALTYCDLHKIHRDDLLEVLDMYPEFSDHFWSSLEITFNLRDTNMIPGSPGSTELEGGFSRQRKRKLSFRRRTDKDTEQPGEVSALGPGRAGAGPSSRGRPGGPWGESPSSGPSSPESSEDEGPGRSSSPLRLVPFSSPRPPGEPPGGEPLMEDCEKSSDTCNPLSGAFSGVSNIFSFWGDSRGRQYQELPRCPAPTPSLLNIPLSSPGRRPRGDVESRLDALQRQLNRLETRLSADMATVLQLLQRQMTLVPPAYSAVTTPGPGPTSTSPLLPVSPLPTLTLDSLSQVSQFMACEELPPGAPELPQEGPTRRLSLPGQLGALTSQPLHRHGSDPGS

SMILES | hERG current change (%, negative = inhibition) at 1uM [%]
COc1cccc(NC(=O)CCC2CCN(Cc3nccs3)CC2)c1 | 9.32
COc1ccc(Cn2cc3c(-c4ccc(F)cc4)nnc-3c3cc(OC)c(OC)cc32)cc1 | -75.6
CCCCCc1nnc(NC(=O)C(=O)OCC)s1 | 1.01
CC(=O)c1cn(CCOc2ccccc2C)c2ccccc12 | 26.4
O=C(NC(=S)Nc1ccc(NC(=O)c2cccs2)cc1)c1ccco1 | 6.68
Cc1cccc(NC(=O)CSc2n[nH]c(-c3ccncc3)n2)c1C | 11.9
O=C(NCc1ccco1)/C(=C\c1ccc(F)cc1)NC(=O)c1ccco1 | 5.6
O=C(OCc1ccccc1)c1ccc2c(c1)-c1ccccc1C2=O | 4.6
CC(C)CCOc1ccc(-c2c(=O)n(OCc3ccc([N+](=O)[O-])cc3)c3ccccc3[n+]2[O-])cc1 | 21.9
COc1cccc(C(=O)c2c(C)c(CCC#N)n3ccccc23)c1OC | 9.21
COC(=O)C(NC(=O)c1ccccc1C(=O)O)c1ccc2ccccc2c1 (centres unmarked) | 15.4
COC(=O)CCC(=O)NNC(=O)Cc1ccccc1 | 20.6
Cc1cc(C)n(C(=O)CNC(=O)c2ccccc2F)n1 | 14.4
Cc1ccc(CNC(=O)[C@H](Cc2ccccc2)NC(=O)c2ccco2)cc1 | 11.3
CCCCc1cc(=O)oc2c(CN3CCN(C)CC3)c(O)ccc12 | 8.26
O=C(NCC(c1ccco1)N1CCOCC1)c1ccc([N+](=O)[O-])cc1 (centres unmarked) | 5
Cn1cccc1C(C#N)(CC#N)c1cccc(F)c1C#N (centres unmarked) | 5.15
Cc1cc(S(=O)(=O)Nc2ccc(C(=O)NCC(c3ccco3)N3CCCC3)cc2)ccc1F (centres unmarked) | 4.01
CC(=O)Nc1ccc(NC(=O)C(=O)NCC(c2ccco2)N2CCc3ccccc3C2)cc1 (centres unmarked) | 2.18
CCOc1ccc(OCc2cccc(C(=O)Nc3ccc(CN4CCCCC4)cc3)c2)cc1 | 5.88
O=C(NCc1ccccc1Cl)C1CCN(S(=O)(=O)N2CCC3(CC2)OCCO3)CC1 | 7.72
Cn1c(=O)c2c(nc(N3CCCCCC3)n2CCSc2nc3ccccc3o2)n(C)c1=O | 1.28
CCN(C(=O)CN1C(=O)S/C(=C\c2cccc(Cl)c2)C1=O)C1CCS(=O)(=O)C1 (centres unmarked) | 7.72

SMILES | hERG current change (%, negative = inhibition) at 1uM [%]
CN1CCN(c2ccc(NC(=O)c3ccc(Cl)cc3Cl)cc2)CC1 | 7.76
CCOC(=O)CCNCc1ccc(OC)c(OC)c1.Cl | 13.6
O=C(/C=C/c1cn(-c2ccccc2)nc1-c1cccnc1)N1CCCCC1 | -11.3
CCC(=O)c1ccc(OCC(=O)OCC(=O)NCc2cccs2)cc1 | -5.99
Oc1cccc(Nc2nc(-c3ccccc3)nc3ccccc23)c1 | 9.15
O=C(COC(=O)COc1ccc(Cl)cc1)Nc1ccc(F)c([N+](=O)[O-])c1 | 9.02
N#Cc1cc(-c2ccccc2)nc(Oc2ccccc2)n1 | 3.48
O=C(c1ccc(Cl)cc1)N(Cc1ccc(Br)cc1)N1C(=O)CCC1=O | -1.71
CCOCCCNC(=O)/C(C#N)=C/c1ccc(-c2ccc(S(=O)(=O)N3CCOCC3)cc2)o1 | -1.44
CCc1ccccc1NNC(=O)c1cc(C)on1 | 14.7
O=C(Cc1ccccc1Cl)N1CCOCC1 | 8.51
OCc1nnc2c3ccccc3c(-c3ccccc3)nn12 | 10
CCOc1ccccc1N1CCN(C(=O)Nc2ccc(Cl)c(Cl)c2)CC1 | 9.47
CCOC(=O)CSc1nnc(CNC(=O)c2ccc(S(=O)(=O)N3CCOCC3)cc2)n1C | 17.2
Cn1cc(Br)c(C(=O)Nc2sc3c(c2C(N)=O)CCC3)n1 | 13.8
COc1ccc(C(=O)Nc2ccc(Br)cn2)cc1S(=O)(=O)N1CCOCC1 | -19.5
O=P1(O)C=C(c2ccccc2)OC(c2ccccc2)=C1 | 14.1
Cn1cncc1C#Cc1c(C=O)[nH]c2ccccc12 | 11
Cc1c(C(=O)N(C)C)sc(NC(=O)c2cc([N+](=O)[O-])cc([N+](=O)[O-])c2)c1C#N | 5.42
Cc1nn(CCS(=O)(=O)c2ccc(Cl)cc2)c(C)c1Br | 17.8
CCn1c(C)c(C(=O)O)c2cc(OC)ccc21 | 4.28
O=C(Nc1cccnc1N1CCOCC1)c1cccs1 | 3.87
CN=C(C)c1c(O)c2ccccc2oc1=O | 2.52

SMILES | hERG current change (%, negative = inhibition) at 1uM [%]
CCCn1c(NC(=O)c2ccc(F)cc2)nc2ccccc21 | 11.4
COc1ccc(NC(=S)N(CCCN2CCC(C)CC2)Cc2cccs2)cc1Cl | -9.68
CCn1c(SCC(=O)O)nnc1-c1ccccc1OC | 11.7
COc1cc(/C=N/NC(=O)c2cc(C3CC3)[nH]n2)cc(OC)c1OC | 11.6
COc1cc(NC(=O)c2cccc3c2C(=O)N(C2CCCCC2)C3)cc(OC)c1OC | 10.8
O=C(Oc1ccc2ccc(=O)oc2c1)c1ccccc1 | 9.28
COc1ccc(NC2=NC(C)(CO)CS2)cc1 (centres unmarked) | 16.6
O=C(CCC(=O)N1CCOCC1)NCCc1ccc(F)cc1 | 15
Cn1c2ccccc2c(=O)c2ccc(C#Cc3ccc(N)cc3)cc21 | 19
Cc1ccccc1NC(=O)CSc1ccncc1 | 11
O=C1CCN(Cc2ccccc2)CCN1[C@H](CSc1ccccc1)c1ccccc1 | 2.25
Cn1c(N2CCC(C(N)=O)CC2)nc2c1c(=O)n(Cc1ccc(Cl)cc1)c(=O)n2C | -16.4
c1ccc(Nc2nc3ccccc3n3cnnc23)cc1 | 12.6
COc1ccc(-c2nnc(SCC(=O)N3CCCC3)o2)c(OC)c1 | 5.81
COc1cccc(/C=C2\SC(=S)N(N3C(=O)CCCC3=O)C2=O)c1 | 16.8
O=C(NCC1CCCO1)NC1(C(F)(F)F)Oc2ccccc2O1 (centres unmarked) | 1.46
COc1cccc(N2CC(C(=O)OC(C)C(=O)c3ccccc3)CC2=O)c1 (centres unmarked) | 5.64
CCCCc1ccc(-n2c(Cc3cccs3)n[nH]c2=S)cc1 | -0.247
COc1cccc(/C=C/C(=O)OCC(=O)NCC2CCCO2)c1OC (centres unmarked) | 8.24
O=S1(=O)CCOC[C@H](c2ccccc2)N1Cc1ccccc1F | 11
Cc1cccc(-c2nc3ccccc3c(=O)n2N)c1 | 17
COc1ccccc1NC(=O)CSc1n[nH]c(-c2ccccn2)n1 | 8.53
CCC(=O)N1CCc2cc(S(=O)(=O)NC(Cc3ccccc3)C(=O)Nc3nccs3)ccc21 (centres unmarked) | 12.9

SMILES | hERG current change (%, negative = inhibition) at 1uM [%]
CCOc1ccc(NC(=O)CSc2nnc(C)n2CC)cc1 | 13.6
CC(C)OCCCNC(=O)C1CCC(=O)N1C1CCCC1 (centres unmarked) | 8.02
CCOc1cc(Br)c(CC(=O)O)cc1OCC | 10.4
CC(=O)CC(=O)Nc1ccc2ccccc2c1 | 7.95
Cn1nc(-c2ccc(NCCO)c([N+](=O)[O-])c2)c2ccccc2c1=O | 13.6
COc1ccc(-n2cc(C(=O)O)c3ccccc3c2=O)cc1 | -8.39
COc1ccc(-n2c(SC(CN3CCCCC3)CN3CCCC3=O)nc3ccccc3c2=O)cc1.Cl (centres unmarked) | 6.87
CC1CCN(S(=O)(=O)c2ccc3ncn(CC(=O)N4CCN(C)CC4)c(=O)c3c2)CC1 | 0.19
C(=N\Nc1nc(Nc2ccccc2)nc(Nc2ccccc2)n1)/c1cccnc1 | 7.3
O=C(COC(=O)c1ccccc1[N+](=O)[O-])NC(=O)c1ccccc1 | 5.76
CCOC(=O)CSc1nc(N)nc(C)c1Cl | 6.56
O=C(CCNC(=O)C1CCN(S(=O)(=O)c2ccccc2)CC1)Nc1ccccc1 | 10.7
CC(=O)O[C@@H]1C[C@H]2C(C)=C[C@H]3OC(=O)[C@@H](C)[C@H]3C[C@H]2[C@]1(C)O | 3.48
COc1cccc(CNC(=O)C(c2ccc(Cl)cc2)C(C)C)c1 (centres unmarked) | 9.32
O=C(COC(=O)c1ccccc1Br)Nc1ccccc1F | -7.39
CC1CCCCC1NC(=O)CN1C(=O)NC(Cc2ccccc2)(Cc2ccccc2)C1=O (centres unmarked) | -13.2
Cc1cc(C)c(S(=O)(=O)N2CCCC2)c(C)c1 | 9.09
COc1ccc(CCNC(=O)C(=O)NCC2CCNCC2)cc1OC | 17.5
Cc1c(C(=O)N2CCOCC2)c(S(=O)(=O)Nc2ccc(Br)cc2F)c(C)n1C | 11.2
Cc1ccc(NC(=O)Nc2ncnc3nc[nH]c23)cc1 | 11.1
Cc1cccc(-n2c(N)cc(=O)[nH]c2=S)c1C | 1.19
COc1nc2c(s1)C(=O)NCCC2 | 6.32
Cc1ccccc1C(=O)c1cccn1CC(=O)NCCCN1CCc2ccccc2C1 | -70
